Experimental data as given in PubChem BioAssay AID504832 (National Center for Advancing Translational Sciences (NCATS), 2011).
Hit rate of the full screen: of about 310,000 compounds, about 18,000 (5.8%) were called active. Inconclusive results, whose numbers are uncertain, are shown with a selection of clear calls. Calls come from the whole dose curve; as a rule, active = well fitted inhibition curve with a large enough effect; inconclusive = small, poorly fitted or top-dose-only effect, or another doubt; inactive = no such curve, though single readings can be large or run the other way. No potency is given beside an inconclusive call; the fits are too rough.

test: Primary qHTS for delayed death inhibitors of the malarial parasite plastid, 48 hour incubation; details: P. falciparum luciferase growth in erythrocytes; series mostly up to 28.7 µM
Procedure, shortened: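 Luminescence readout; reporter = integrated firefly luciferase in P. falciparum. RBC culture at 2% hematocrit, 0.1% parasitemia final, 37 C/5% CO2; decreased signal taken as growth inhibition.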
Potency is the fitted concentration of half-maximal effect; tags give direction and shape of the fitted curve.

Structure (SMILES) | Potency
Cc1ccc2c(c1)C(c1ccncc1)=NNC(c1ccc(F)cc1)=N2 | inconclusive [inhibitor, single point]
CCN(CC)S(=O)(=O)c1ccc(N2CCCC2)c(NC(=O)CN2C(=O)NC3(CCCC3)C2=O)c1 | inconclusive [inhibitor, single point]
CNC(=O)Oc1ccc2c(c1)[C@]1(C)CCN(C)C1N2C (stereo not given in full) | active: 13.1 µM
CCOc1c(C)cc(S(=O)(=O)NCc2ccccn2)c(C)c1C | inactive
Cc1c(O)ccc2c(CN(C)Cc3ccccc3)cc(=O)oc12 | inconclusive [inhibitor, single point]
COc1cccc(/C=N/NC(=S)NC2CC3CCC2C3)c1OC (stereo not given) | active: 6.57 µM
O=C(NCC1CCN(Cc2cccc(Cl)c2)CC1)C1CCCN(c2ncnc3c2nc2n3CCCCC2)C1 (stereo not given) | inconclusive [inhibitor, partial curve]
Cc1ccc(C(=O)O/N=C/c2c(N3CCOCC3)n(C)c3ccccc23)cc1 | inconclusive [inhibitor, full curve]
Cc1nnc(NC(=O)CCn2c(=O)oc3ccccc32)s1 | inactive
Cc1nn(C)cc1C1C(C#N)=C(N)N(c2ccc(F)c([N+](=O)[O-])c2)C2=C1C(=O)CCC2 (stereo not given) | inconclusive [inhibitor, partial curve]
Cc1cc2cc(C)c(NCCNC(=O)c3ccccc3)nc2cc1C | inconclusive [inhibitor, single point]
O=C1CCCC(=O)N1c1ccc(Oc2ccc(Cl)cc2)cc1 | inactive
CN1CCN(CCCCOc2cccc3ccccc23)CC1 | inactive
COc1ccc(OC2C(=O)N(CCc3ccc(OC)c(OC)c3)C2c2ccc3c(c2)OCO3)cc1 (stereo not given) | inconclusive [inhibitor, single point]
Cc1cc(/C=C2\SC(=Nc3ccccc3)NC2=O)c(C)n1-c1ccc(S(N)(=O)=O)cc1 | active: 4.15 µM
Cc1cccc(OCC(=O)Nc2cc(S(=O)(=O)N3CCCCC3)ccc2N2CCN(C)CC2)c1 | inconclusive [inhibitor, partial curve, poor fit]
COc1ccc(-c2oc3ncnc(NCCCO)c3c2-c2ccc(OC)cc2)cc1 | inconclusive [inhibitor, partial curve]
CCOc1ccc(CCNC(=O)C2CCCN(c3nn4c(=O)cc(C)nc4s3)C2)cc1OCC (stereo not given) | inconclusive [inhibitor, partial curve]
CCC(=O)Nc1nc2ccc3sc(C)nc3c2s1 | inconclusive [inhibitor, single point]
CCOC(=O)N1CCN(C(=O)Cc2ccc(-n3c(=O)[nH]c4ccccc4c3=O)cc2)CC1 | inactive
Cc1nc2nc(C)c(NS(=O)(=O)c3ccc4c(c3)CCCC4)c(=O)n2[nH]1 | inconclusive [inhibitor, full curve, poor fit]
CC(C)OC(=O)c1ccc(N)cc1 | inactive
FC(F)(F)c1cnc(NNC(=S)Nc2cccnc2)c(Cl)c1 | inconclusive [inhibitor, single point]
Cc1ccc(NCc2ccc([N+](=O)[O-])s2)cc1 | inactive

Structure (SMILES) | Potency
CSCCC(C(=O)OCC(=O)c1ccc(C)c(C)c1)N1C(=O)c2ccccc2C1=O (stereo not given) | inactive
COc1ccc(NC(=O)C2CCN(S(=O)(=O)c3ccc4c(c3)CC(C)N4C(C)=O)CC2)cc1OC (stereo not given) | inactive
CN(C)c1ccc(N=Cc2nc(-c3ccccc3)oc2OC(=O)c2cccc(Br)c2)cc1 | inactive
Cc1nn(C2CCS(=O)(=O)C2)c(Cl)c1/C=C/C(=O)OCC(=O)Nc1ccccc1OC(F)F (stereo not given) | inactive
CCOC(=O)CSc1nc2c(c(=O)n(C)c(=O)n2C)n1CCCc1ccccc1 | inactive
Cc1cc(C)cc(NC(=O)NCc2ccccn2)c1 | inactive
CC1(C)C(=O)Nc2ccccc2N1C(=O)Cn1ncc(Cl)c(Cl)c1=O | inconclusive [inhibitor, full curve, poor fit]
Cc1ccc(Nc2cc(=O)[nH]c(=O)[nH]2)c(C)c1 | inconclusive [inhibitor, single point]
COC(=O)[C@@H](NC(=O)NC1CCCCC1C)C(C)C (stereo not given in full) | inactive
CCOc1ccccc1NC(=O)Cn1nnc(C(=O)NCCc2ccc(OCC)c(OCC)c2)c1N | inconclusive [inhibitor, full curve, poor fit]
CCN(c1ccccc1)S(=O)(=O)c1cc2c3c(c1)CCN3C(=O)CC2 | inconclusive [inhibitor, single point]
COc1ccc2[nH]c(C)c(CCNCc3cccnc3)c2c1 | inconclusive [inhibitor, partial curve, poor fit]
COC(=O)c1ccc(C(=O)OC)c(NC(=O)CN2CCC(C)CC2)c1 | inconclusive [inhibitor, partial curve, poor fit]
COc1ccc(N2C(=O)N3[C@H](c4ccc(Cl)cc4)[C@@H]4C(=O)N(C5CCCCC5)C(=O)[C@@H]4[C@]3(Cc3ccc(Cl)cc3)C2=O)cc1 | inactive
COc1ccc(-c2c(C(F)(F)F)oc3c(CN4CCN(C)CC4)c(O)ccc3c2=O)cc1 | active: 3.29 µM
Cc1cc(C)n(C(C)CC(=O)Nc2ccc3c(c2)OCO3)n1 (stereo not given) | inactive
CC1CCCN(C(=O)Cc2cn(Cc3cccc(Cl)c3)c3ccccc23)C1 (stereo not given) | inconclusive [inhibitor, single point]
CCOC(=O)c1ccc(Nc2nc(C)nc3c2nnn3Cc2ccccc2)cc1 | inconclusive [inhibitor, single point]
O=C1NC(=Nc2ccccc2)/C(=C/c2ccco2)S1 | inconclusive [inhibitor, single point]
CCCn1c(CNc2ccccc2O)nc2ccccc21 | inconclusive [inhibitor, single point]
CCCOc1ccc(N2C(=O)CC(NNC(=O)c3ccc(COc4ccccc4)o3)C2=O)cc1 (stereo not given) | inconclusive [inhibitor, single point]
Cn1c(=O)n(Cc2ccccc2)c(=O)c2c1nc1n2CCS1 | inconclusive [inhibitor, partial curve]
O=C(CC1C(=O)N(Cc2ccccc2)C(=S)N1CCN1CCOCC1)Nc1ccc(F)cc1 (stereo not given) | active: 1.85 µM
CC(Cc1cccs1)NCc1ccc(Cl)cc1 (stereo not given) | inconclusive [inhibitor, full curve, poor fit]

Structure (SMILES) | Potency
Cc1ccc(C(C#N)c2ccc3c(C(F)(F)F)cc(C(F)(F)F)nc3n2)cc1 (stereo not given) | inconclusive [inhibitor, full curve]
Cn1ccc(=Nc2ccc(NC(=O)c3ccc(N=c4ccn(C)c5ccc([N+](=O)[O-])cc45)cc3)cc2)cc1 | active: 0.233 µM
Cc1cccc2cc(CN(Cc3ccc(F)cc3)C(=O)N3CCOCC3)c3nnnn3c12 | inconclusive [inhibitor, partial curve, poor fit]
CCOc1c(Cl)cc(CNCCc2c[nH]c3ccccc23)cc1OC | inconclusive [inhibitor, partial curve, poor fit]
Cc1ccc(C)c(OCCC(=O)OCC(=O)NNC(=O)c2ccccc2)c1 | inconclusive [inhibitor, single point]
CS(=O)(=O)c1ccccc1-c1nnc(NC(=O)c2ccc(S(=O)(=O)N3CCCC3)cc2)o1 | inactive
COCCCn1c(=O)c2sccc2n(Cc2cccc(F)c2)c1=O | inconclusive [inhibitor, full curve, poor fit]
O=C(NCc1cccs1)c1nn2cccnc2c1Cl | inconclusive [inhibitor, single point]
CCOC(=O)CN(C)Cc1c[nH]c2ccccc12 | inconclusive [inhibitor, partial curve]
CC12CN3CN(C1)CC(c1ccccc1)(C3)C2=O | inactive
COc1ccc(C2=NOC(COc3ccc([N+](=O)[O-])cc3)C2)cc1 (stereo not given) | inactive
COc1ccc(CNC(=O)[C@H](C)NC(=O)C2CCN(C(=O)[C@@H](N)Cc3ccccc3)CC2)cc1 | inactive
Cc1ccc(-n2c(SCC(=O)Nc3ccc4c5c(cccc35)CC4)nc(O)cc2=O)cc1 | active: 2.94 µM
COc1ccc(C(=O)N2CC(=O)Nc3ccc(F)cc3C2c2ccccc2)cc1 (stereo not given) | inconclusive [inhibitor, single point]
COc1ccc(CCNC(=O)Cc2ccccc2)cc1OC | inactive
COC(=O)c1sccc1NC(=O)C1CC2CCC1C2 (stereo not given) | inactive
O=C(O)c1cccc2c1C(=O)N(Cc1ccccc1)C2 | inconclusive [inhibitor, full curve, poor fit]
Cc1ccc(-c2nn3c(C)nnc3c3ccccc23)cc1S(=O)(=O)NC(C)(C)CO | inconclusive [inhibitor, partial curve, poor fit]
O=C(NC(=O)c1cc(OCC(F)(F)F)ccc1OCC(F)(F)F)Nc1ccccc1 | inconclusive [inhibitor, partial curve, poor fit]
C=C/C(C)=C/CC1C(=C)CCC2C(C)(C(=O)O)CCCC12C (stereo not given) | inconclusive [inhibitor, single point]
CCN1C(=O)/C(=C\c2cccn2-c2ccc([N+](=O)[O-])cc2)N(CC)C1=S | inactive
CC(C)(C)C(=O)OCOP(=O)(COCCn1cnc2c(N)ncnc21)OCOC(=O)C(C)(C)C | active: 15.1 µM
